In PubChem BioAssay AID504832 (National Center for Advancing Translational Sciences (NCATS), 2011):
Screen size: about 310,000 compounds; about 18,000 (5.8%) were called active. This list was built around the results that the source calls inconclusive (neither active nor inactive); the mix of calls is not that of the screen. Calls come from the whole dose curve; as a rule, active = well fitted inhibition curve with a large enough effect; inconclusive = small, poorly fitted or top-dose-only effect, or another doubt; inactive = no such curve, though single readings can be large or run the other way. No potency is given beside an inconclusive call; the fits are too rough.
% is set by controls: 0 for no effect and ±100 for the full control effect; potency is the fitted concentration of half-maximal effect; tags give direction and shape of the fitted curve.

Test: Primary qHTS for delayed death inhibitors of the malarial parasite plastid, 48 hour incubation
Conditions: P. falciparum luciferase growth in erythrocytes; series mostly up to 28.7 µM; activity change, negative = inhibition: at the top concentration
How it was run: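 Compounds are pin-transferred into medium, infected erythrocytes (2% hematocrit, 0.1% parasitemia final) are added, and plates sit one parasite generation at 37 C in 5% CO2. Detection reagent is then added and luminescence measured.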
With `COc1ccc(-c2cn[nH]c2N)c(OC)c1` the Potency was inconclusive [inhibitor, single point].
In the case of `CCOC(=O)CCc1c(C)c2ccc(OC3CCCCC3=O)cc2oc1=O` (stereo not given), the Potency is reported as inconclusive [inhibitor, single point].
In the case of `CN(C)c1cc[n+](CC(=O)c2cccs2)cc1`, the Potency is reported as inconclusive [inhibitor, full curve].
With `CCOC(=O)Cc1csc(NC(=O)CN2CCN(c3ccccc3)CC2)n1` the “activity change, negative = inhibition” value was inactive: 4.51%.
With `C=Cn1ccnc1P(=S)(c1nccn1C=C)C1CCCCC1` the Potency was inconclusive [inhibitor, single point].
In the case of `Cc1ccc(CN2CC(C(=O)N3CCN(S(=O)(=O)c4cccc(F)c4)CC3)CC2=O)cc1` (stereo not given), the Potency is reported as inconclusive [inhibitor, single point].
For `Cc1ccccc1NC(=O)C1C2C=CC(C3CC23)C1C(=O)O` (stereo not given), the Potency was inconclusive [inhibitor, full curve, poor fit].
In the case of `Cc1cc(C)cc(OCC(=O)N2N=C(C(F)(F)F)CC2(O)C(C)(C)C)c1` (stereo not given), the Potency is reported as inconclusive [inhibitor, single point].
With `Cc1ccc(C(c2nnnn2C2CCCC2)N2c3ccccc3CC2C)cc1` (stereo not given) the Potency was active: 13.1 µM.
In the case of `CN(C)S(=O)(=O)N1CCN(CC(O)COc2ccc(C(=O)c3ccccc3)cc2)CC1` (stereo not given), the Potency is reported as inconclusive [inhibitor, single point].
In the case of `COc1ccc(CN2C(=NC(=O)C3CCCO3)SC3CS(=O)(=O)CC32)cc1` (stereo not given), the “activity change, negative = inhibition” value is reported as inactive: 1.35%.
With `CC(=O)N1CCN(S(=O)(=O)c2cccc(C(=O)Nc3nccs3)c2)CC1` the Potency was inconclusive [inhibitor, partial curve, poor fit].
With `Cc1ccc(C(=O)NC(=S)Nc2cccc(-c3nc4ccccc4s3)c2)cc1` the “activity change, negative = inhibition” value was inactive: 102%.
With `CS(=O)(=O)N1CCN(c2ccccc2NC(=O)c2ccc([N+](=O)[O-])o2)CC1` the Potency was inconclusive [inhibitor, single point].
With `Cc1[nH]c2ccccc2c1C(=O)CN1CCCC1` the Potency was inconclusive [inhibitor, single point].
In the case of `O=P(OC1CCCCC1)(OC1CCCCC1)C(O)c1ccc(Cl)cc1Cl` (stereo not given), the Potency is reported as active: 1.85 µM.
For `C#CC[N+](C)(C)CC#Cc1ccc(Cl)cc1`, the Potency was active: 1.65 µM.
For `COCCN(C(=O)CCC(=O)Nc1ccccn1)C(C(=O)NCCC(C)C)c1ccc(C)cc1` (stereo not given), the “activity change, negative = inhibition” value was inactive: -0.552%.
With `CN(C)S(=O)(=O)c1cccc(NC(=O)CN2C(=O)NC(CCc3ccccc3)C2=O)c1` (stereo not given) the Potency was inconclusive [inhibitor, partial curve, poor fit].
In the case of `N#Cc1c2c(c(NCc3ccco3)n3c1nc1ccccc13)CCC2`, the Potency is reported as active: 1.04 µM.
For `Cc1ccc(OCCC(=O)Nc2ccc(S(=O)(=O)Nc3cc(C)nc(C)n3)cc2)cc1`, the Potency was inconclusive [inhibitor, partial curve, poor fit].
With `Cc1cc(-c2c(C)[nH]n(-c3ccc(Cl)cc3)c2=O)n(-c2ccc(Cl)cc2)n1` the Potency was inconclusive [inhibitor, partial curve, poor fit].
With `COC(=O)c1ccccc1NC(=O)CN1CCCCCC1` the “activity change, negative = inhibition” value was inactive: -1.08%.
With `COc1cc(-c2noc(CCCC(=O)NCc3ccco3)n2)cc(OC)c1OC` the Potency was inconclusive [inhibitor, partial curve].
In the case of `CCOc1ccc(N=C2NC(=O)SC2CC(=O)OC)cc1` (stereo not given), the “activity change, negative = inhibition” value is reported as inactive: 43.6%.
With `CC1CSc2n(-c3cccc(C(F)(F)F)c3)cc(-c3ccccc3)[n+]21` (stereo not given) the Potency was active: 1.85 µM.
For `CC1CC[C@@]2(NC1)OC1CC3C4CC[C@@H]5CC(O)CC[C@@]5(C)C4CC[C@]3(C)C1C2C` (stereo not given in full), the Potency was inconclusive [inhibitor, single point].
With `Cc1ccc(C(=O)NCCc2nnc3ccc(SCC(=O)Nc4cc(C)on4)nn23)cc1` the “activity change, negative = inhibition” value was inactive: -25.1%.
In the case of `COc1ccc(NC(=O)C2CCCN(C)C2)cc1OCC(C)C` (stereo not given), the “activity change, negative = inhibition” value is reported as inactive: -19.9%.
With `Cc1cccc(NC(=S)NC(=O)c2ccc(Br)o2)c1C` the “activity change, negative = inhibition” value was inactive: -14%.
For `Oc1ccc2c(ccc3[nH]cnc32)c1`, the Potency was inconclusive [inhibitor, full curve, poor fit].
For `CCN(CC)P(=O)(Nc1ccc(Br)cc1)c1c(C)nn(CCC#N)c1NC(=O)c1ccc(Cl)cc1` (stereo not given), the Potency was inconclusive [inhibitor, partial curve, poor fit].
In the case of `CC1=NN(C(=O)c2ccc(Cn3ccc([N+](=O)[O-])n3)cc2)C(O)(C(F)(F)F)C1` (stereo not given), the “activity change, negative = inhibition” value is reported as inactive: -5.97%.
In the case of `Cn1cc(Br)c(-c2cccc(NC(=O)CCCC(=O)O)c2)n1`, the Potency is reported as inconclusive [inhibitor, full curve, poor fit].
With `Cc1ccc(Nc2cc(=O)oc3ccccc23)c(C)c1` the Potency was inconclusive [inhibitor, partial curve].
For `Cc1cccc(C)c1NC(=S)NCc1ccncc1`, the Potency was inconclusive [inhibitor, full curve, poor fit].
In the case of `O=C(COc1cc2oc(=O)cc(-c3ccccc3)c2cc1Cl)NCCN1CCOCC1`, the “activity change, negative = inhibition” value is reported as inactive: 3.24%.
In the case of `Cc1cc(C)n2nc(SCc3ccc(F)cc3Cl)nc2n1`, the Potency is reported as inconclusive [inhibitor, single point].
In the case of `O=C(NCC(c1cccs1)N1CCOCC1)c1cc(S(=O)(=O)N2CCOCC2)c(Cl)cc1Cl` (stereo not given), the Potency is reported as inconclusive [inhibitor, partial curve, poor fit].
For `CCOC(=O)[C@H]1[C@H]2COc3cc(OC)ccc3[C@@H]2N2C(=O)c3cc(F)ccc3NC(=O)[C@@]12C`, the Potency was active: 9.28 µM.
In the case of `COc1ccccc1-n1cnc2cc(NC(=O)c3ccco3)ccc21`, the “activity change, negative = inhibition” value is reported as inactive: -18.7%.
In the case of `O=C(Nc1ccc(C(F)(F)F)cn1)Nc1cccs1`, the “activity change, negative = inhibition” value is reported as inactive: 35.5%.
With `CSc1nc(=S)n(-c2ccc([N+](=O)[O-])cc2)c(C)c1C(C)=O` the “activity change, negative = inhibition” value was inactive: 0.932%.
With `CC(C)(C)c1cc(NCCCn2ccnc2)n2ncc(-c3ccc(Cl)cc3)c2n1` the Potency was inconclusive [inhibitor, full curve].
With `Nc1nc(SCC(=O)NCC2CCCO2)[nH]c(=O)c1NC(=O)c1ccc(F)c(F)c1` (stereo not given) the “activity change, negative = inhibition” value was inactive: 1.1%.
In the case of `COC(=O)c1c(-c2ccc(C)cc2)csc1NC(=S)NC(=O)c1cc(OC)cc(OC)c1`, the Potency is reported as inconclusive [inhibitor, single point].
In the case of `COc1ccc(-n2c(=O)c3c4c(sc3n(CC(=O)NCC3CCCO3)c2=O)CCCC4)c(OC)c1` (stereo not given), the Potency is reported as inconclusive [inhibitor, single point].
For `O=C(Nc1nc2ccccc2n1Cc1ccccc1)c1ccc(COc2ccccc2[N+](=O)[O-])o1`, the Potency was active: 1.85 µM.
In the case of `CCOC(=O)[C@H]1[C@H]2COc3ccccc3[C@@H]2N2C(=O)c3cc(F)ccc3NC(=O)[C@@]12C`, the Potency is reported as inconclusive [inhibitor, partial curve, poor fit].
With `CCCCCCOc1ccc(N2C(=O)CC(N3CCC(C(=O)OCC)CC3)C2=O)cc1` (stereo not given) the “activity change, negative = inhibition” value was inactive: 8.68%.
For `O=C(Nc1ccc(F)cc1F)c1cc(-c2ccc3c(c2)OCO3)on1`, the “activity change, negative = inhibition” value was inactive: 84.7%.
For `Cc1cc(C)cc(OCc2ccc(C(=O)O)o2)c1`, the “activity change, negative = inhibition” value was inactive: 11.4%.
With `O=C(NCCOc1ccc(Cl)cc1)c1cccc(S(=O)(=O)N2CCCC2)c1` the Potency was inconclusive [inhibitor, single point].
For `Cc1cccc(N(C(=O)c2ccc(Cl)cc2)C2CS(=O)(=O)CC2OC(=O)c2ccc(Cl)cc2)c1` (stereo not given), the Potency was inconclusive [inhibitor, single point].
With `Cc1ccc(Cn2c(=O)cc(C(=O)O)c3ccccc32)cc1` the Potency was inconclusive [inhibitor, partial curve, poor fit].
For `O=C(NCc1ccccc1)c1ccc(Br)cc1Br`, the “activity change, negative = inhibition” value was inactive: 6.14%.
In the case of `Cc1ccc(-c2nnc(Nc3ccc(O)cc3)c3ccccc23)cc1S(=O)(=O)NCCO`, the Potency is reported as inconclusive [inhibitor, partial curve].
In the case of `CN(C)S(=O)(=O)N1CCC(Oc2cccc(C(=O)NCCCC3CCCC3)c2)CC1`, the Potency is reported as inconclusive [inhibitor, partial curve, poor fit].
With `CCCCCOc1ccc(NC(=O)CSc2cccc3cccnc23)cc1` the Potency was active: 10.4 µM.
In the case of `C/C(=N\Nc1ccc(Cl)cc1)c1ccncc1`, the Potency is reported as inconclusive [inhibitor, single point].
For `O=C(Nc1ccc(F)c(F)c1)c1ccc(F)c(S(=O)(=O)N2CCC3(CC2)OCCO3)c1`, the Potency was inconclusive [inhibitor, single point].
With `C[C@@]12CC[C@H]3OC(=O)C=C3C1CC[C@@]13CC(CCC12)[C@](CO)(O[C@H]1O[C@H](CO)[C@@H](O)[C@H](O)[C@H]1O)C3` (stereo not given in full) the “activity change, negative = inhibition” value was inactive: -5.39%.
With `CCN(Cc1ccccc1)S(=O)(=O)c1ccc(OC)cc1` the Potency was inconclusive [inhibitor, partial curve, poor fit].
For `O=c1c2ccccc2nc(-c2ccc(-c3ccccc3)cc2)n1-c1ccncc1`, the Potency was inconclusive [inhibitor, single point].
With `CC(C)(C)CC(=O)Nc1nnc(SCC(=O)NC2CCCCC2)s1` the Potency was inconclusive [inhibitor, single point].
With `CC(C(=O)O)N1CCCCC1` (stereo not given) the Potency was inconclusive [inhibitor, single point].
In the case of `COC(=O)CN1C(c2ccc(Cl)cc2)=Nc2ccc(Cl)cc2C1c1ccccc1` (stereo not given), the Potency is reported as active: 2.62 µM.
In the case of `S=c1[nH]nc(-c2ccccn2)n1/N=C/c1ccc(Cl)cc1`, the Potency is reported as inconclusive [inhibitor, single point].
With `O=C(Nc1nnc(-c2cccs2)s1)C1CC1` the “activity change, negative = inhibition” value was inactive: 69.3%.
With `O=[N+]([O-])c1ccc(-c2c[nH]c(=S)[nH]2)cc1` the “activity change, negative = inhibition” value was inactive: 0%.
